In PMC7432041 one finds stoichiometry N data, which are given here for 1 molecule.

This experiment addresses T1, Cy3-NeutrAvidin, P02701.
T1 chain: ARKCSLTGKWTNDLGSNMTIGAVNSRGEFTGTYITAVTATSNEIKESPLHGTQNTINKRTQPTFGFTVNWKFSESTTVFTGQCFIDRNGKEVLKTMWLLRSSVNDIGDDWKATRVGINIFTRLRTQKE
Nature of the experiment: SEC-MALS; SEC-LS (static and dynamic light scattering, refractive index, absorbance at 280 and 550 nm); Shodex KW 802.5 column at 4 °C, 25 mM Tris pH 7.5, 150 mM NaCl, 4 mM CaCl2, 0.5 mL/min; 50 µL injected. The note with it: remark: other sources report otherwise. On the technique in general: Size exclusion chromatography separates by hydrodynamic size, large species first.

B1: Cy3-NeutrAvidin, P02701 25-152 (natural protein)
chain: T1 chain
modifications: here or on the partner: Cy3 (Cy3-NHS ester, degree of labelling 0.5); Cy3 (Cy3-NHS ester, degree of labelling 0.5)
Molecule B1 returned a stoichiometry N of 8.

By stoichiometry N is commonly meant a count of units in the complex or per binding partner.
